Source: the supplement of paper PMC3334620
Whole data set: some 33,000 sequences, median “E-score (-0.5 to 0.5)” near -0.04, cut for the highest 2% near 0.36. The list shows a part of the results.

molecular target: T1, Hmlalpha2 (UniProt P0CY09); assay: PBM E-score (8-mer binding enrichment) (E-score (-0.5 to 0.5)); higher = stronger / more preferred TF binding; most listed sequences are background and not binding sites; conditions: protein concentration: 200 nM; construct: GST-full length
T1 sequence: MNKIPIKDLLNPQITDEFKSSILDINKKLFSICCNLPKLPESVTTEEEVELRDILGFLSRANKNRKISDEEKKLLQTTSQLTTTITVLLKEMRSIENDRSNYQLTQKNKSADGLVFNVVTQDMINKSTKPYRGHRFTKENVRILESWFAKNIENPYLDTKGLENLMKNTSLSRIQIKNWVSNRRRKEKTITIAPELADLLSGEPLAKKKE
Protocol: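 Universal 'all 10-mer' protein binding microarrays (Agilent AMADID 015681) probed with GST-tagged S. cerevisiae TFs (full-length or DBD) made by in vitro transcription/translation (PURExpress), about 100-200 nM. Bound TF was detected with fluorescent anti-GST. Each ungapped 8-mer (which stands for itself and its reverse complement) is scored by the PBM enrichment score (E-score), a modified Wilcoxon-Mann-Whitney statistic from -0.5 to +0.5, computed with the Universal PBM Analysis Suite. Scale: above 0.35 generally sequence-specific binding.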

Sequence | PBM E-score
GGGCGTGA | -0.0441
CCGAAGAG | -0.112
GCCGCTTA | -0.0607
TAATCCAA | 0.148
ACTCGAAG | -0.154
CCCTCTCA | -0.244
CCCCAAAC | -0.0758
CCCGAGTA | 0.00896
ACCCCCAT | -0.322
ATATGTCC | 0.078
CCGCACTA | -0.0914
CTTCCTAA | 0.0557
CGTGGGAG | -0.125
CCGAACCC | -0.307
CGCTCGCA | -0.145
AAAACAGA | 0.137
ACTCTGTC | -0.0428
ATACTTTC | -0.0215
GCCACGAA | -0.24
GTCAGCAC | 0.00173
CTTGATAA | 0.188
TACTATCA | 0.0862
ACCCGCGT | 0.264
GGGGCAGA | -0.09
GTTTCGCA | -0.0552

Sequence | PBM E-score
CATATACC | -0.0816
ATCAGAGA | -0.0644
AATCACTC | -0.133
CATTCTAA | 0.157
ACGCACCA | 0.0903
ACTAAGCA | 0.165
CCTGCTGC | -0.247
GAAGTGTC | -0.059
ACTGAGTG | -0.0291
AGGTTTCA | -0.106
ACGGGAAC | -0.0568
AGAAGGAA | -0.351
AGATAGCA | -0.0944
AGCGTTAA | 0.0425
ACGTGTTA | 0.45
GACTTTAC | 0.148
CTAGGCGA | -0.354
ATTGTTCA | 0.175
CTACATGA | 0.421
CTGTTTGC | 0.0985
TAGCGCGA | -0.102
AGGCCACG | -0.127
CGATTGAA | -0.126
CGATAGTA | -0.0878
ATACACAC | 0.429

Sequence | PBM E-score
GAACAAAC | 0.294
AGTCGTGG | -0.12
GGAATCGA | -0.107
AACATCAC | 0.308
TTACAGAA | 0.235
GTATCACA | 0.215
CACGGTTA | 0.214
CCATAGAA | -0.0708
CAAATTCC | 0.0903
TGCGTTAA | 0.397
CAAAGGGA | -0.0281
ACGGCGGA | -0.275
AGCACGTC | 0.0271
CCGGGCCC | -0.182
AGTACCAA | 0.128
CTTGACTC | -0.216
AAATGGCC | -0.0982
ACAGACGG | -0.164
GCTGTGGA | -0.156
ATGAGGCC | -0.277
ACTTACGG | -0.0366
AGCCGATA | -0.23
GGTCTGAA | -0.0484
GTAGAAAA | 0.288
TGATCTAA | 0.0816

Sequence | PBM E-score
CCCGTGAA | -0.101
AGGCTTCC | -0.174
TTGGTAAA | 0.246
GAATCGCC | -0.285
AGGAGGCA | -0.303
CGGATGTA | 0.196
TGCTGACA | 0.0801
CAAGAATC | 0.104
CGCAAAAA | 0.117
TATAATCA | 0.225
CAGGACAC | -0.0394
ATCAACGA | 0.0337
AACAACCG | 0.156
AAATATAT | 0.297
AACACCCA | -0.0548
ACATTGCG | 0.249
ATTCGTGA | 0.0967
GCACGAAA | 0.0721
GCGCTGTA | 0.0785
GCAGCCGA | -0.13
ATAGAGAT | 0.0789
GAGTGCCA | -0.281
GACAATGA | -0.0828
ATCATATC | 0.0449
GCCAAGTA | -0.0244

Sequence | PBM E-score
CGCTACTA | 0.106
AACAGTCG | -0.186
AAAGCAAC | 0.115
GGGGATAA | -0.178
ACTCCGGG | -0.19
CCCTTCGC | -0.212
TCTAGCCA | -0.166
CAAGCCGA | 0.0589
GGTCTTCA | -0.313
AAATGTAT | 0.277
CAGATGTA | 0.0641
AACATTAT | 0.326
AAGCACAG | 0.0362
CGGGTTCA | -0.0294
ACCCCACT | -0.257
CATATAAC | 0.157
ACAGTATG | 0.0436
AGCGCCTC | -0.277
CACTTCCA | 0.092
AGTCCACA | -0.0378
CGTGACTA | 0.0651
ACTCTGAA | -0.0779
AATACCGA | -0.111
CTAATCGA | 0.00191
AGCGCAGC | -0.176

Sequence | PBM E-score
CTTACAGA | 0.0289
AGATAAGA | 0.0492
CAATGCAG | 0.00435
ATAGAGAA | 0.123
TATGGCGA | -0.299
CCCGATGA | -0.0127
CAGTCAAA | 0.0031
ACAGGCAC | -0.0734
CGCATAGA | -0.216
TCTTAACA | 0.404
AAACGCTT | 0.0378
CACTTGAA | 0.0542
AGGAGCAT | 0.0896
AGTTAACC | 0.103
AATACATT | 0.329
CGAGACGC | -0.125
AGTTGTTA | 0.246
ATCCGCCG | -0.0747
AAGCGTGT | 0.371
AGCCAGTG | -0.158
TCGGGTCA | -0.204
CGCTATAA | -0.00727
CCAAATGC | -0.167
AGTACTAT | 0.0829
ACTATGCC | -0.0399

Sequence | PBM E-score
ATTACTCA | 0.22
AACACTCT | 0.235
CCCTGCGG | -0.264
ACAATGTC | 0.176
AAAAGTGG | -0.0409
AGAAGCCC | -0.168
GGGCCCCA | -0.372
CATAGGTC | -0.0447
AGTCCTCA | -0.254
ATCCTGCA | -0.0119
CAAGTACG | 0.0911
CGCAGACG | -0.108
GACCGATC | -0.144
ATTGAATG | 0.069
GTGTTGAA | 0.398
AAGGTCCA | -0.219
CCGTATCG | -0.212
CCGCGCAG | -0.204
CCGTCGTC | -0.267
ATTCGCGC | -0.0468
GGGCCACA | -0.275
CAGACGAG | -0.129
CGCTTAAC | 0.217
AGTGACAC | 0.222
AATCTACA | 0.438

Sequence | PBM E-score
CCCTACTC | -0.141
AGCTTGAC | -0.148
CCCCCTTA | -0.375
GAATCACA | 0.0227
AACCTATC | -0.15
AAAGCTCT | -0.154
CTTGGCTC | -0.189
AGCGGAGG | -0.235
ACCTTAGG | -0.209
GGCGTTAC | 0.0453
AGATACCG | 0.0272
ACGTAGGC | -0.017
CAATCGTC | -0.0103
CTTACATA | 0.426
TACTTTCA | 0.0368
CCGTCACA | -0.207
ACGAAGGG | -0.0444
CAGCCTTC | -0.301
ACGTTGGA | 0.126
AGTCCCGC | -0.314
GTACTGGA | 0.165
CCCTAACA | 0.246
GAACGTAA | 0.242
GAGTCTGC | -0.139
AAGCTGTC | -0.143

Sequence | PBM E-score
ACCTGCGC | -0.0923
AGGGACGC | -0.185
AGGCATCG | -0.146
AACGAGAT | -0.00737
AGGCCCTC | -0.321
CCAAGTAC | 0.0274
GATTCTCA | 0.00258
AGAACGTC | 0.0127
CTTCACTC | -0.0574
AAAACACT | 0.148
GGCTTACC | -0.29
CGTTAAGC | 0.0573
GAGGGCCA | -0.255
AAAACGCC | 0.0828
GCTATCTA | 0.177
ACCTCTTC | -0.0525
AGACTGGC | -0.211
CTGTTGCA | -0.0465
GACCTCAC | -0.119
